{"source": "PubChem BioAssay AID2073", "about": "(Sanford-Burnham Center for Chemical Genomics, 2009)", "note": "The list shows a part of the results. Shown are side measurements of this screen, not its main read-out; they come without a call."}
{"target": "Voltage-dependent N-type calcium channel subunit alpha-1B (Homo sapiens) (UniProt Q00975)", "sequence (Q00975 whole entry, looked up)": "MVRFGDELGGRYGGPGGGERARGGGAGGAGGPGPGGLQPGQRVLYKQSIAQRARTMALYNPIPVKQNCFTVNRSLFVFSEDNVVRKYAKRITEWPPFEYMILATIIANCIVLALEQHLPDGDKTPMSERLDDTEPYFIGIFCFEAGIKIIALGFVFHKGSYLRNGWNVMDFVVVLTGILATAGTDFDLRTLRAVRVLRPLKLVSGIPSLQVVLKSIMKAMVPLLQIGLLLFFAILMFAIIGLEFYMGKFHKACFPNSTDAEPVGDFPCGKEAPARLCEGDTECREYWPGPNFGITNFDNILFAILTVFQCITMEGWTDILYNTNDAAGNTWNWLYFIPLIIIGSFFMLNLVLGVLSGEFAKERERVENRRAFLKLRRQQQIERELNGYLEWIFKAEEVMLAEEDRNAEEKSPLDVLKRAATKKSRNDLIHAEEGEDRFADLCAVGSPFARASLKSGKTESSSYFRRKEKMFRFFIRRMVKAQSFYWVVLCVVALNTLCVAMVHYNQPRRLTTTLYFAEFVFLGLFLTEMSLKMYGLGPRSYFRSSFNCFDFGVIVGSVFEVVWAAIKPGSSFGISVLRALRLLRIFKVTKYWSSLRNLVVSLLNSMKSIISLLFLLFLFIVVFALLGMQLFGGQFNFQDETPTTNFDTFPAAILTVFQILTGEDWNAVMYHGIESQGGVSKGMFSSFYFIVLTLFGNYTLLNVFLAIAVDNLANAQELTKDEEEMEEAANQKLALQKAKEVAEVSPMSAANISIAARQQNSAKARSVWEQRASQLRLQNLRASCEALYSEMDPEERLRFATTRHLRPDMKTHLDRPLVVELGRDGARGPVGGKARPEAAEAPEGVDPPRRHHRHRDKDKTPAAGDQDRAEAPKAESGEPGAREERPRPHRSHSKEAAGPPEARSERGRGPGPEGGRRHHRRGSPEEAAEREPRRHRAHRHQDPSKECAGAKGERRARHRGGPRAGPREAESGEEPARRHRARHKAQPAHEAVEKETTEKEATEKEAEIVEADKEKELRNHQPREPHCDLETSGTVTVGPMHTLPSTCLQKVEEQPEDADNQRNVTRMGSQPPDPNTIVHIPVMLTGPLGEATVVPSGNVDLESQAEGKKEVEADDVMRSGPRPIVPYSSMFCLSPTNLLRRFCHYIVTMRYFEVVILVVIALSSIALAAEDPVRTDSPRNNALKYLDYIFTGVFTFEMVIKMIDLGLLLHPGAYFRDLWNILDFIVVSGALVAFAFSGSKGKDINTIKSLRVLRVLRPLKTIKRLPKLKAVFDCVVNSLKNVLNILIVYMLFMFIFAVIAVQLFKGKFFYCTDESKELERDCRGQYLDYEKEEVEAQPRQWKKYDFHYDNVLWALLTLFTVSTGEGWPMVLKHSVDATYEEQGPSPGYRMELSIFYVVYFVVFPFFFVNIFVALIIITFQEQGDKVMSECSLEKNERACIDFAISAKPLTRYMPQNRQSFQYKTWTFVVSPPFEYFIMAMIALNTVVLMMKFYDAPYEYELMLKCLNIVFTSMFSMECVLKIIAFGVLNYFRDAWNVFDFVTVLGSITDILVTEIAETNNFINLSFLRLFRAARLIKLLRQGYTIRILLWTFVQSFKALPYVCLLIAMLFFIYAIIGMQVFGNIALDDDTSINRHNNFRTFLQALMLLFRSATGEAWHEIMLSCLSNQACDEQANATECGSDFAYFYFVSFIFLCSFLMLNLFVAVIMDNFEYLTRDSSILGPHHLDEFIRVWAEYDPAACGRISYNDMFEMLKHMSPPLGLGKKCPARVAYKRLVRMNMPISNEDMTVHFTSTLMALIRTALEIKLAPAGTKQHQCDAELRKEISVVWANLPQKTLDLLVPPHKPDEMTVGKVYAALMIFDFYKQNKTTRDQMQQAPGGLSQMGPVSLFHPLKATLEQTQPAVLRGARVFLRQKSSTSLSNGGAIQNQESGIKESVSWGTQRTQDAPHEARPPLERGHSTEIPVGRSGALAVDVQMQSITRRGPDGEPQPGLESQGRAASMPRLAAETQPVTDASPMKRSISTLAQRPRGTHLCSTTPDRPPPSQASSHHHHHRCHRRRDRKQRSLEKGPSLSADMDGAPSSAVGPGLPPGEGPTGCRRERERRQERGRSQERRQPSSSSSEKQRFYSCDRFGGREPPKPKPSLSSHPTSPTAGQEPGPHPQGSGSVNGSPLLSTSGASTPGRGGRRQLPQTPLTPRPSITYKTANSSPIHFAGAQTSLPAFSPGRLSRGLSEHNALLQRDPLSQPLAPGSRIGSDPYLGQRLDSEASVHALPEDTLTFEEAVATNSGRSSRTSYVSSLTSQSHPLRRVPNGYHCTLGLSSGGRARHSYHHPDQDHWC", "assay": "disruptors of CaV2.2 binding to Mint1 – biochemical, HTRF (AID 2073)", "conditions": "HTRF protein-protein interaction, Mint1-CaV2.2; measured here: average of repeat tests; at 20 µM; stronger effect = higher value", "units": {"inhibition": "%"}}
{"compound": "Clc1nssc1=Nc1ccc(Br)cc1", "inhibition": 79.3}
{"compound": "CC(=O)Oc1ccc(/C=N\\NC(=O)c2cc3c(ccc4ccccc43)o2)cc1", "inhibition": 43.8}
{"compound": "Nc1c(C(=O)NC2CC2)sc2nc3c(c(-c4ccco4)c12)CC/C3=C/c1ccco1", "inhibition": 49.9}
{"compound": "CCOc1ccc(N2CSC3=C(C#N)C(c4ccco4)CC(=O)N3C2)cc1", "note": "(configuration not stated)", "inhibition": 70.1}
{"compound": "N#C/C(=C\\c1ccc(OCCN2CCOCC2)cc1)C(=O)Nc1ccc(S(N)(=O)=O)cc1", "inhibition": 68.9}
{"compound": "O=C(CN1C(=O)/C(=C\\c2cccc(Br)c2)Oc2ccccc21)NCC1CCCO1", "note": "(configuration not stated)", "inhibition": 46.7}
{"compound": "COCCNC(=O)/C(C#N)=C/c1cccc(/C=C(\\C#N)C(=O)NCCOC)c1", "inhibition": 54}
{"compound": "O=C(CSc1ccc(Cl)cc1)Nc1cccc(-c2nc3ccccc3[nH]2)c1", "inhibition": 49.7}
{"compound": "O=C(N/N=C/c1ccncc1)c1ccc(NC(=O)c2ccc(Cl)cc2)cc1", "inhibition": 68.9}
{"compound": "CCCCCCc1cc2cc(-c3nnc(-c4ccccc4OC)o3)c(=O)oc2cc1O", "inhibition": 77.5}
{"compound": "N#Cc1cccc(N=c2ssnc2Cl)c1", "inhibition": 66.4}
{"compound": "O=C(CNC(=O)/C=C/c1ccco1)N=Nc1c(O)[nH]c2ccccc12", "inhibition": 50.6}
{"compound": "Cc1cc(C)nc(/N=c2/ssnc2Cl)c1", "inhibition": 60.1}
{"compound": "COC(=O)c1ccc(/C=C2/SC(=S)N(CCCC(=O)Nc3ccc(O)cc3)C2=O)cc1", "inhibition": 57.2}
{"compound": "ClC(Cl)(c1nnnn1-c1ccccc1)c1nnnn1-c1ccccc1", "inhibition": 87.4}
{"compound": "CC1=C(C)CS(=O)N(S(=O)(=O)c2ccc(Cl)cc2)C1", "note": "(configuration not stated)", "inhibition": 81.3}
{"compound": "O=C(CCN1C(=O)/C(=C/c2ccc(Cl)cc2)SC1=S)NC1C=CS(=O)(=O)C1", "note": "(configuration not stated)", "inhibition": 85.6}
{"compound": "N=C1/C(=C/c2ccc(-c3cccc(C(=O)O)c3)o2)C(=O)N=C2SC=C(c3ccccc3)N12", "inhibition": 87.8}
{"compound": "COc1ccc(-n2cccc2/C=C2\\C(=N)N3N=C(c4ccco4)SC3=NC2=O)cc1", "inhibition": 71.2}
{"compound": "Cc1ccc(-n2nnnc2C(Cl)(Cl)c2nnnn2-c2ccc(C)cc2)cc1", "inhibition": 81.8}
{"compound": "Cc1cccnc1NC(=S)Nc1ccc(F)cc1F", "inhibition": 68.6}
{"compound": "CCc1ccc(-n2cccc2/C=C2/C(=N)N3C(=NC2=O)SN=C3S(C)(=O)=O)cc1", "inhibition": 40.9}
{"compound": "Cc1ccc(Cn2c(C(C)Nc3nc(-c4ccc(C)cc4)cs3)nc3cc(Cl)c(Cl)cc32)cc1", "note": "(configuration not stated)", "inhibition": 77.2}
{"compound": "Cc1cc2nn(-c3cccc4ccccc34)nc2cc1N", "inhibition": 53.3}
{"compound": "O=C(Nc1nc2ccsc2c(=O)s1)c1ccco1", "inhibition": 56.4}
{"compound": "Nc1ccc2nn(-c3cccc4ccccc34)nc2c1", "inhibition": 60.5}
{"compound": "CC(C)NC(=O)COC(=O)/C=C/c1ccco1", "inhibition": 23}
{"compound": "O=C(N/N=C/c1cc(Cl)c(O)c(Cl)c1)c1cc2c(ccc3ccccc32)o1", "inhibition": 61.4}
{"compound": "Cc1ccc(NN2C(=O)C=C(c3ccc(Cl)cc3)C2=O)cc1", "inhibition": 56.2}
{"compound": "O=C(CCN1C(=O)/C(=C/c2ccccc2F)SC1=S)NC1C=CS(=O)(=O)C1", "note": "(configuration not stated)", "inhibition": 85.3}
{"compound": "Cc1ccc(N2CSC3=C(C#N)C(c4cccs4)CC(=O)N3C2)cc1", "note": "(configuration not stated)", "inhibition": 54.6}
{"compound": "O=C(CN1C(=O)S/C(=C\\c2ccc(-c3cc(C(=O)O)ccc3Cl)o2)C1=O)Nc1ccc2c(c1)OCO2", "inhibition": 64.7}
{"compound": "CN(CCC#N)C(=O)COC(=O)c1c2c(nc3ccccc13)/C(=C/c1ccco1)CC2", "inhibition": 51.9}
{"compound": "O=C(O)COc1ccc(/C=N/NC(=O)c2ccc(-c3csc(Nc4ccc(Cl)cc4)n3)cc2)cc1", "inhibition": 75}
{"compound": "Cc1cc(C)nc(NC(=S)Nc2ccc(Br)cc2Cl)c1", "inhibition": 70.2}
{"compound": "O=C(CCS(=O)(=O)c1ccc(Br)cc1)NCc1ccco1", "inhibition": 66.3}
{"compound": "O=C(CCN1C(=O)/C(=C/c2ccccc2Cl)SC1=S)NC1C=CS(=O)(=O)C1", "note": "(configuration not stated)", "inhibition": 63.6}
{"compound": "CC(/C=C/c1ccco1)=N/NC(=O)Cc1cccs1", "inhibition": 44.6}
{"compound": "COc1ccc2cc3c(N)nn(C(=O)c4ccc(Cl)c([N+](=O)[O-])c4)c3nc2c1", "inhibition": 45.6}
{"compound": "COc1cc(NC(=O)c2cccc(F)c2)ccc1NC(=O)c1cc2ccccc2o1", "inhibition": 48.1}
{"compound": "Cn1cc(Cl)c(C(=O)Nc2nc3ccc([N+](=O)[O-])cc3s2)n1", "inhibition": 39.7}
{"compound": "C=C(C)C(=O)Nc1cccc(C2=NOC3(C2)C[C@@H](C(N)=O)N(C(=O)CCCCC)C3)c1", "note": "(some centres not stated)", "inhibition": 71.1}
{"compound": "CCOC(=O)C1=C(C)N=c2s/c(=C/c3ccc(OCC(=O)O)cc3)c(=O)n2C1c1ccc(SC)cc1", "note": "(configuration not stated)", "inhibition": 92.4}
{"compound": "COc1cc(-c2ccc(Nc3ccccc3C(=O)O)c(OC)c2)ccc1Nc1ccccc1C(=O)O", "inhibition": 65.3}
{"compound": "COc1cc(OC)c2c(O)c3c(c(-c4c5c(c(O)c6c(OC)cc(OC)cc46)CO[C@@H](C)[C@H]5O)c2c1)[C@H](O)[C@H](C)OC3", "inhibition": 72.6}
{"compound": "COCCn1c(SCC(=O)Nc2ccc(C(N)=O)cc2)nc2c([nH]c3ccccc32)c1=O", "inhibition": 56.5}
{"compound": "COc1ccc(N2C(=O)CC(Sc3nnnn3-c3ccc(F)cc3)C2=O)cc1", "note": "(configuration not stated)", "inhibition": 58.4}
{"compound": "CCOC(=O)c1c2ccc(OCC(=O)NN)cc2n2ccccc12", "inhibition": 45}
{"compound": "Cc1cccc(-n2cnc3c(c2=O)c2nc4ccccc4nc2n3Cc2ccco2)c1", "inhibition": 40}
{"compound": "COc1cc(NC(=O)c2ccccc2)ccc1NC(=O)c1cc2ccccc2o1", "inhibition": 65.6}
{"compound": "CCOc1ccc(/C=C2/SC(=S)N(CCC(=O)Nc3ccc(C(=O)O)cc3)C2=O)cc1", "inhibition": 85.6}
{"compound": "CCOC(=O)C1=C(C)N=c2s/c(=C\\c3ccc(OCC(=O)O)cc3)c(=O)n2C1c1ccc(Cl)cc1", "note": "(configuration not stated)", "inhibition": 92.2}
{"compound": "CCOC(=O)Cc1csc(-n2sc3ccccc3c2=O)n1", "inhibition": 72}
{"compound": "N#CC1=C(N)NC(=S)C(C(N)=O)C1c1ccc([N+](=O)[O-])cc1", "note": "(configuration not stated)", "inhibition": 87.3}
{"compound": "CC(=O)Nc1ccc(OC(=O)c2cc3cc(Br)ccc3oc2=O)cc1", "inhibition": 49.2}
{"compound": "COc1ccc([C@@H]2CC(=O)c3c(O)cc(O[C@@H]4O[C@H](CO[C@@H]5O[C@@H](C)[C@H](O)[C@@H](O)[C@H]5O)[C@@H](O)[C@H](O)[C@H]4O)cc3O2)cc1O", "inhibition": 68.5}
{"compound": "Cc1ccc(-c2cc(C(=O)NCCN3CCOCC3)c3ccccc3n2)o1", "inhibition": 58.7}
{"compound": "O=C(O)CCc1ccc(-c2cccs2)o1", "inhibition": 49.8}
{"compound": "O=C(/C=C/c1ccc([N+](=O)[O-])cc1)N(c1ccccn1)C1CCCCC1", "inhibition": 54.7}
{"compound": "O=C(O)C1Nc2c(O)cccc2C2C=CCC12", "note": "(configuration not stated)", "inhibition": 79.4}
{"compound": "[N-]=C=C1C(=S)NC(=O)[C@H]([n+]2ccccc2)[C@H]1c1ccc(Cl)cc1", "inhibition": 54.5}
{"compound": "Cc1cc(C)c2c(=O)n(CC(=O)NCCCN3CCOCC3)sc2n1", "inhibition": 94.2}
{"compound": "CC(=O)NC1=NC(=O)/C(=C/c2cn(C(C)=O)nc2-c2ccccc2)S1", "inhibition": 42.1}
{"compound": "Cc1ccc(-c2ccc(/C=C3\\C(=O)ON=C3c3ccccc3)o2)c([N+](=O)[O-])c1", "inhibition": 59.8}
{"compound": "COc1ccc(/C=C/C(=O)NC(=S)Nc2ccc(S(=O)(=O)N=C(N)N)cc2)cc1OC", "inhibition": 75.8}
{"compound": "Nc1c(C(=O)Nc2ccccc2)sc2nc(-c3ccco3)ccc12", "inhibition": 67.3}
{"compound": "O=C(COc1ccc(/C=N/NC(=O)c2ccc(O)cc2)cc1)Nc1ccc([N+](=O)[O-])cc1", "inhibition": 75.6}
{"compound": "CCOc1cc(/C=N/NC(=O)c2ccc(-c3csc(Nc4ccc(C)cc4)n3)cc2)ccc1OCC(=O)O", "inhibition": 88}
{"compound": "N#CC1=C(N)NC(=S)C(C(N)=O)C1c1ccccc1F", "note": "(configuration not stated)", "inhibition": 81.4}
{"compound": "COc1ccc(C2CC(=O)N3CN(c4ccc(C)c(Cl)c4)CSC3=C2C#N)cc1OC", "note": "(configuration not stated)", "inhibition": 47.8}
{"compound": "O=C(Nc1ccc(Cl)c(Cl)c1)Nc1nnc(-c2ccncc2)s1", "inhibition": 42.7}
{"compound": "CC(/C=C/c1ccco1)=N\\NC(=O)c1cccnc1", "inhibition": 60.6}
{"compound": "Cn1c2ccccc2c2cc(/C=N/NC(=O)c3cc(O)ccc3O)ccc21", "inhibition": 54.2}
{"compound": "CCOC(=O)c1nnn2c1nc(Nc1cccc(C(F)(F)F)c1)c1ccccc12", "inhibition": 37.8}
{"compound": "COc1cc(OC)c(-c2c3cc(O)c(=O)cc-3oc3cc(O)c(O)cc23)cc1OC", "inhibition": 46.3}
{"compound": "O=C1C=CC(=O)N1c1ccc(N2CCCCC2)cc1", "inhibition": 61.4}
{"compound": "Nc1c(C(=O)Nc2ccc(Br)cc2)sc2nc(-c3ccco3)ccc12", "inhibition": 66}
{"compound": "CC1=C(C#N)C(=O)N(C2CCS(=O)(=O)C2)C(=O)/C1=C\\c1ccco1", "note": "(configuration not stated)", "inhibition": 98}
{"compound": "CCC1=NN2C(=N)/C(=C\\c3ccc(OCc4cc(=O)n5nc(CC)sc5n4)c(OC)c3)C(=O)N=C2S1", "inhibition": 64.8}
{"compound": "NC(=O)c1ccc2c(=O)c(O)c(-c3cc(Cl)c(N)c(Cl)c3)[nH]c2c1", "inhibition": 59}
{"compound": "CN1CCN(NS(=O)(=O)c2cccs2)CC1", "inhibition": 43.5}
{"compound": "Nc1cccc(-c2nc3cc(S(=O)(=O)c4ccc5oc(-c6cccc(N)c6)nc5c4)ccc3o2)c1", "inhibition": 47.6}
{"compound": "COC(=O)c1ccc(NC(=O)c2ccc(NC(=O)c3ccco3)cc2)cc1", "inhibition": 47.7}
{"compound": "Cc1cc2nc(/C=C/c3nc4cc(C)c(C)cc4[nH]3)[nH]c2cc1C", "inhibition": 45.3}
{"compound": "CCOC(=O)c1nn(-c2ccc(C)c(C)c2)c(=O)c2c(N)scc12", "inhibition": 56.7}
{"compound": "CCCc1ccc(/C=C2\\C(=O)c3ccccc3C(O)=C2C(=O)OCC)cc1", "inhibition": 55.4}
{"compound": "O=C(NCCCO)Nc1ccc2nc(-c3ccco3)c(-c3ccco3)nc2c1", "inhibition": 59.8}
{"compound": "O=C(NC1CCCC1)c1ccc2nc(-c3ccco3)c(-c3ccco3)nc2c1", "inhibition": 35.5}
{"compound": "O=C(CSc1n[nH]c(=O)[nH]c1=O)Nc1ccc2c(c1)C(=O)c1ccccc1C2=O", "inhibition": 53.5}
{"compound": "O=c1cc(CO)oc(C(Nc2cccc(C(F)(F)F)c2)c2ccccn2)c1O", "note": "(configuration not stated)", "inhibition": 65.7}
{"compound": "CC1=C(C)CS(=O)N(S(=O)(=O)c2ccccc2)C1", "note": "(configuration not stated)", "inhibition": 60.4}
{"compound": "Cc1cc(=O)oc2cc(OCC(=O)N/N=C/c3cc([N+](=O)[O-])ccc3O)ccc12", "inhibition": 50.9}
{"compound": "Cc1ccc(N(CC(O)COCc2ccco2)S(=O)(=O)c2ccc(C)cc2)cc1", "note": "(configuration not stated)", "inhibition": 48.9}
{"compound": "C=C(C)C(=O)Nc1cccc(C2=NOC3(C2)C[C@@H](C(N)=O)N(C(=O)c2ccc(OC)cc2)C3)c1", "note": "(some centres not stated)", "inhibition": 78.6}
{"compound": "COc1ccc(N=C2S/C(=C\\c3ccc(OC(C)C(=O)O)c(OC)c3)C(=O)N2CCc2c[nH]c3ccccc23)cc1", "note": "(configuration not stated)", "inhibition": 80.7}
{"compound": "Cc1cc(C)c2c(=O)n(CC(=O)NC3CCCC3)sc2n1", "inhibition": 91}
{"compound": "COc1ccc(C(=O)Nc2nnc(CC(=O)N/N=C/c3ccc(O)cc3O)s2)cc1", "inhibition": 51}
